Data: paper PMC4242493
The list shows a part of the results. The list includes weakly bound sequences.

molecular target: MaxL homodimer (UniProt P61244); assay: universal protein-binding microarray (PBM); settings: PBS-based mixture, 10 nM His-tagged protein dimer, 2% milk, 200 ng/uL BSA, 50 ng/uL salmon testes DNA, 0.02% TX-100; detection with Alexa 488 anti-His …; high values mean tight binding; most listed sequences are background and not binding sites; double strand, one strand shown
Sequence of UniProt P61244 (P61244 whole entry): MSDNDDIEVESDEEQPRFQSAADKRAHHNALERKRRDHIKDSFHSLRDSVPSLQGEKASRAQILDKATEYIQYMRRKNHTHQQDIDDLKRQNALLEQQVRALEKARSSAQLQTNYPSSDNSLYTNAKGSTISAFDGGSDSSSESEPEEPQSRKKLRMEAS

With ACAAAGGC as the sequence, how does the binding signal (normalized occupancy) read?
The binding signal (normalized occupancy) was 0.0748.

For CGCCGAAA, which binding signal (normalized occupancy) is on record?
The binding signal (normalized occupancy) was 0.0723.

With CAGGGCCA as the sequence, how does the binding signal (normalized occupancy) read?
The binding signal (normalized occupancy) was 0.0682.

For ACCAAGCG, which binding signal (normalized occupancy) is on record?
Its binding signal (normalized occupancy) is 0.0722.

Which binding signal (normalized occupancy) does the source give for AGGGGGGC here?
Its binding signal (normalized occupancy) is 0.0735.

ATTGTATG was tested. Which binding signal (normalized occupancy) did it give?
Its binding signal (normalized occupancy) is 0.0787.

How did the binding signal (normalized occupancy) turn out when CGTATTTC was run?
The binding signal (normalized occupancy) was 0.0733.

With CTTGCAAA as the sequence, how does the binding signal (normalized occupancy) read?
Its binding signal (normalized occupancy) is 0.0707.

How did the binding signal (normalized occupancy) turn out when CAAACCGG was run?
The binding signal (normalized occupancy) was 0.0699.

How did the binding signal (normalized occupancy) turn out when CCCACTCA was run?
The binding signal (normalized occupancy) was 0.0811.

With AGATTCTC as the sequence, how does the binding signal (normalized occupancy) read?
The binding signal (normalized occupancy) was 0.0727.

With CTGGTCAA as the sequence, how does the binding signal (normalized occupancy) read?
The binding signal (normalized occupancy) was 0.0758.

How did the binding signal (normalized occupancy) turn out when CAGACTCC was run?
Its binding signal (normalized occupancy) is 0.0711.

How did the binding signal (normalized occupancy) turn out when GTTCTCCA was run?
Its binding signal (normalized occupancy) is 0.0767.

Which binding signal (normalized occupancy) does the source give for AAGATGGA here?
Its binding signal (normalized occupancy) is 0.0778.

How did the binding signal (normalized occupancy) turn out when CGTCACAC was run?
Its binding signal (normalized occupancy) is 0.0847.

With ATGCATAA as the sequence, how does the binding signal (normalized occupancy) read?
Its binding signal (normalized occupancy) is 0.0852.

How did the binding signal (normalized occupancy) turn out when GGAATACC was run?
The binding signal (normalized occupancy) was 0.0749.

How did the binding signal (normalized occupancy) turn out when TACGCAGA was run?
Its binding signal (normalized occupancy) is 0.0734.

CCTATACA was tested. Which binding signal (normalized occupancy) did it give?
The binding signal (normalized occupancy) was 0.0875.

For GGACCTAC, which binding signal (normalized occupancy) is on record?
The binding signal (normalized occupancy) was 0.07.

Which binding signal (normalized occupancy) does the source give for CAACGACG here?
Its binding signal (normalized occupancy) is 0.0689.

CGCGTAAC was tested. Which binding signal (normalized occupancy) did it give?
The binding signal (normalized occupancy) was 0.0752.

With CATCTCGG as the sequence, how does the binding signal (normalized occupancy) read?
Its binding signal (normalized occupancy) is 0.0691.

Which binding signal (normalized occupancy) does the source give for GCCCAGAA here?
The binding signal (normalized occupancy) was 0.0711.

How did the binding signal (normalized occupancy) turn out when AATACATG was run?
The binding signal (normalized occupancy) was 0.0934.

How did the binding signal (normalized occupancy) turn out when AAGTAGAC was run?
Its binding signal (normalized occupancy) is 0.0735.

How did the binding signal (normalized occupancy) turn out when CCAGACCA was run?
The binding signal (normalized occupancy) was 0.0787.

Which binding signal (normalized occupancy) does the source give for ATGGCGAG here?
Its binding signal (normalized occupancy) is 0.0825.

For CTCACCCA, which binding signal (normalized occupancy) is on record?
The binding signal (normalized occupancy) was 0.0813.

For CGTTCTGC, which binding signal (normalized occupancy) is on record?
The binding signal (normalized occupancy) was 0.0681.

How did the binding signal (normalized occupancy) turn out when AACGGATC was run?
Its binding signal (normalized occupancy) is 0.0724.

ATCGTCAA was tested. Which binding signal (normalized occupancy) did it give?
The binding signal (normalized occupancy) was 0.0733.

For GACCGGGC, which binding signal (normalized occupancy) is on record?
The binding signal (normalized occupancy) was 0.0681.

For CAAGCCAC, which binding signal (normalized occupancy) is on record?
Its binding signal (normalized occupancy) is 0.073.

For CAGTGGAC, which binding signal (normalized occupancy) is on record?
The binding signal (normalized occupancy) was 0.0709.

For GTTCCAAC, which binding signal (normalized occupancy) is on record?
Its binding signal (normalized occupancy) is 0.0734.

With GTTCACGA as the sequence, how does the binding signal (normalized occupancy) read?
Its binding signal (normalized occupancy) is 0.0769.

Which binding signal (normalized occupancy) does the source give for AGTAAGCG here?
Its binding signal (normalized occupancy) is 0.0712.

How did the binding signal (normalized occupancy) turn out when GAATATGA was run?
The binding signal (normalized occupancy) was 0.0824.

How did the binding signal (normalized occupancy) turn out when CCCGGTCA was run?
Its binding signal (normalized occupancy) is 0.0714.

How did the binding signal (normalized occupancy) turn out when AGTGTTTA was run?
The binding signal (normalized occupancy) was 0.0765.

With GCAAAGGA as the sequence, how does the binding signal (normalized occupancy) read?
The binding signal (normalized occupancy) was 0.0773.

For GAGGTGGC, which binding signal (normalized occupancy) is on record?
Its binding signal (normalized occupancy) is 0.0764.

How did the binding signal (normalized occupancy) turn out when ATATGTTC was run?
Its binding signal (normalized occupancy) is 0.0831.

How did the binding signal (normalized occupancy) turn out when TCCCTCCA was run?
Its binding signal (normalized occupancy) is 0.075.

AATGGTTG was tested. Which binding signal (normalized occupancy) did it give?
Its binding signal (normalized occupancy) is 0.0726.

ACGATAGT was tested. Which binding signal (normalized occupancy) did it give?
The binding signal (normalized occupancy) was 0.0776.

How did the binding signal (normalized occupancy) turn out when CGAAGCGA was run?
The binding signal (normalized occupancy) was 0.0654.

With CCGATCGG as the sequence, how does the binding signal (normalized occupancy) read?
The binding signal (normalized occupancy) was 0.0714.

With CAATAACC as the sequence, how does the binding signal (normalized occupancy) read?
The binding signal (normalized occupancy) was 0.0764.

How did the binding signal (normalized occupancy) turn out when ACTCACTA was run?
Its binding signal (normalized occupancy) is 0.075.

Which binding signal (normalized occupancy) does the source give for ACAATTCA here?
The binding signal (normalized occupancy) was 0.0745.

With AAAGCACA as the sequence, how does the binding signal (normalized occupancy) read?
Its binding signal (normalized occupancy) is 0.0821.

With AGTTACAA as the sequence, how does the binding signal (normalized occupancy) read?
The binding signal (normalized occupancy) was 0.078.

With GTTAAACA as the sequence, how does the binding signal (normalized occupancy) read?
The binding signal (normalized occupancy) was 0.0748.

For AGTTAAAG, which binding signal (normalized occupancy) is on record?
Its binding signal (normalized occupancy) is 0.0717.

For ATACCGTG, which binding signal (normalized occupancy) is on record?
The binding signal (normalized occupancy) was 0.0839.

CAGCGCCG was tested. Which binding signal (normalized occupancy) did it give?
Its binding signal (normalized occupancy) is 0.0666.

ATTGCGAA was tested. Which binding signal (normalized occupancy) did it give?
Its binding signal (normalized occupancy) is 0.074.

How did the binding signal (normalized occupancy) turn out when CTTCTCCC was run?
The binding signal (normalized occupancy) was 0.0744.

For ACCGCTGC, which binding signal (normalized occupancy) is on record?
The binding signal (normalized occupancy) was 0.0713.

CGCCGTCC was tested. Which binding signal (normalized occupancy) did it give?
The binding signal (normalized occupancy) was 0.073.

With CTGAAACC as the sequence, how does the binding signal (normalized occupancy) read?
Its binding signal (normalized occupancy) is 0.0744.

For CGAGACTA, which binding signal (normalized occupancy) is on record?
The binding signal (normalized occupancy) was 0.0737.

Which binding signal (normalized occupancy) does the source give for AGTTTAGA here?
Its binding signal (normalized occupancy) is 0.0768.

With GCTACAAC as the sequence, how does the binding signal (normalized occupancy) read?
The binding signal (normalized occupancy) was 0.0711.

How did the binding signal (normalized occupancy) turn out when GCCTGTAA was run?
The binding signal (normalized occupancy) was 0.0783.

Which binding signal (normalized occupancy) does the source give for CATGGAGA here?
The binding signal (normalized occupancy) was 0.0883.

For CATTACAG, which binding signal (normalized occupancy) is on record?
The binding signal (normalized occupancy) was 0.0807.

With CTAAATGC as the sequence, how does the binding signal (normalized occupancy) read?
The binding signal (normalized occupancy) was 0.0737.

For AGTCGGTC, which binding signal (normalized occupancy) is on record?
Its binding signal (normalized occupancy) is 0.0712.

How did the binding signal (normalized occupancy) turn out when CCGGATAA was run?
The binding signal (normalized occupancy) was 0.0763.

Which binding signal (normalized occupancy) does the source give for CTACTACC here?
Its binding signal (normalized occupancy) is 0.0741.

CCCCGAGG was tested. Which binding signal (normalized occupancy) did it give?
Its binding signal (normalized occupancy) is 0.0716.

How did the binding signal (normalized occupancy) turn out when CGCGAACA was run?
The binding signal (normalized occupancy) was 0.0751.

Which binding signal (normalized occupancy) does the source give for AGCACCCG here?
The binding signal (normalized occupancy) was 0.0761.

How did the binding signal (normalized occupancy) turn out when CAATACAC was run?
Its binding signal (normalized occupancy) is 0.0814.

With AGTTATAA as the sequence, how does the binding signal (normalized occupancy) read?
Its binding signal (normalized occupancy) is 0.0756.

With CAGCTCGA as the sequence, how does the binding signal (normalized occupancy) read?
The binding signal (normalized occupancy) was 0.0692.

How did the binding signal (normalized occupancy) turn out when ACGCACCT was run?
Its binding signal (normalized occupancy) is 0.0799.

With AGAAGGGG as the sequence, how does the binding signal (normalized occupancy) read?
Its binding signal (normalized occupancy) is 0.0791.

With GACTTGGC as the sequence, how does the binding signal (normalized occupancy) read?
The binding signal (normalized occupancy) was 0.0635.

For TCAAGAGA, which binding signal (normalized occupancy) is on record?
Its binding signal (normalized occupancy) is 0.0709.

For AAATGTGG, which binding signal (normalized occupancy) is on record?
Its binding signal (normalized occupancy) is 0.088.

AAGAGCTC was tested. Which binding signal (normalized occupancy) did it give?
Its binding signal (normalized occupancy) is 0.0682.

Which binding signal (normalized occupancy) does the source give for CTTGATTA here?
The binding signal (normalized occupancy) was 0.0744.

With CAGTAAAG as the sequence, how does the binding signal (normalized occupancy) read?
The binding signal (normalized occupancy) was 0.076.

With ATCTTTAA as the sequence, how does the binding signal (normalized occupancy) read?
The binding signal (normalized occupancy) was 0.0773.

With AGTACTAT as the sequence, how does the binding signal (normalized occupancy) read?
The binding signal (normalized occupancy) was 0.0713.

With CCATTAGG as the sequence, how does the binding signal (normalized occupancy) read?
Its binding signal (normalized occupancy) is 0.0714.

How did the binding signal (normalized occupancy) turn out when GAGAATCA was run?
The binding signal (normalized occupancy) was 0.073.

How did the binding signal (normalized occupancy) turn out when CGTGCCAC was run?
The binding signal (normalized occupancy) was 0.087.

With ATACCGAG as the sequence, how does the binding signal (normalized occupancy) read?
Its binding signal (normalized occupancy) is 0.0718.
